The test concerns the target GST-TBC1D23 (559 to 684) (mouse) (UniProt Q8K0F1). As to the kind of experiment: pull-down; GST-tagged bait from bacterial lysate on glutathione-Sepharose beads (washed, once with 500 mM NaCl), 2 h at 4°C with clarified bacterial lysate containing the prey; 50 mM tris pH 7.4, 150 mM NaCl, 1 mM EDTA, 5 mM 2-mercaptoethanol, 1% Triton X-100; Coomassie stain or anti-His6 …; only the target purified.

By UniProt entry, the sequences of proteins in these tests, tags left out. Residues count along the entry.
UniProt Q8K0F1, residues 559-684: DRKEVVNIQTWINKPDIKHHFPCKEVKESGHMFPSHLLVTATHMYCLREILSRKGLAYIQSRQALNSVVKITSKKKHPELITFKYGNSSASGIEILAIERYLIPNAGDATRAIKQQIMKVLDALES
UniProt Q96ET8, residues 1-34: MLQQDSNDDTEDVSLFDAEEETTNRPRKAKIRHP

Results are given in words; binding and its absence hold for the method and conditions named. Binding seen in cells or lysates may run through a third protein. Some results given as binding are weak or reduced against the parent protein; the word gives no strength.

Take “His6-MBP-TVP23C (1 to 34) (from UniProt Q96ET8 1-34) (domain or fragment)”: the binding result is listed as “binds”.

The values above are taken from PMC11093223, “Cargo selective vesicle tethering: The structural basis for binding of specific cargo proteins by the Golgi tether component TBC1D23” (Science Advances, 2024).
